Test results taken from US10322110B2, “Imidazole-based antimicrobial agents” (priority 2014, dated 2019).

Assays:
Type in all cases: cell-based
[1] = test system: Streptococcus pneumoniae (Chester, ATCC49619); test: broth microdilution MIC assay, Streptococcus pneumoniae; details: MIC100 class score, 24 h
[2] = test system: Staphylococcus aureus MRSA (COL); test: broth microdilution MIC assay, Staphylococcus aureus MRSA (COL); details: MIC100 class score, 24 h
[3] = test system: Staphylococcus aureus MSSA (Newman); test: broth microdilution MIC assay, Staphylococcus aureus MSSA (Newman); details: MIC100 class score, 24 h
[4] = test system: Human keratinocytes (HaCaT cells); test: human cytotoxicity assay in vitro (CellTiter-Glo), keratinocytes; set-up: key: 4: compounds inhibiting cell viability 50% or more at concentrations of 5 μM or less; 3: compounds causing more than 50% inhibition of cell viability at 10 μM; compounds causing >50% inhibition of cell viability at 25 μM; 1: compounds causing less than 50% inhibition of cell viability at 50 μM; compounds not causing loss of cell viability at concentrations of 50 μM or higher; details: cytotoxicity class
[5] = test system: Human hepatocytes (HepaRG cells); test: human cytotoxicity assay in vitro (CellTiter-Glo), hepatocytes; details: cytotoxicity class

SMILES | Antibacterial activity Streptococcus pneumoniae [1] | Antibacterial activity Staphylococcus aureus (MRSA) [2] | Antibacterial activity Staphylococcus aureus (MSSA) [3] | cytotoxicity cell line K (keratinocytes) [4] | cytotoxicity cell line H (hepatocytes) [5]
CCCCc1[nH]c(-c2ccc(-c3ccccc3OC(F)(F)F)o2)nc1C [Compound 91] | 4 (MIC of 1 μg/ml or less for preventing streptococcal growth 100% (MIC100)) | 4 (MIC of ≥1 μg/ml to 3 μg/ml for preventing staphylococcal growth 100% (MIC100)) | – | – | –
Cc1nc(-c2ccc(-c3ccccc3C(F)(F)F)o2)[nH]c1-c1ccccc1Cl [Compound 20] | 4 (MIC of 1 μg/ml or less for preventing streptococcal growth 100% (MIC100)) | – | 1 (MIC100 of 20-50 μg/ml or an MIC50 of <10 μg/ml) | 0 (compounds not causing loss of cell viability at concentrations of 50 μM or higher) | –
Cc1nc(-c2ccc(-c3ccccc3C(F)(F)F)o2)[nH]c1CC(C)C [Compound 92] | 4 (MIC of 1 μg/ml or less for preventing streptococcal growth 100% (MIC100)) | 4 (MIC of ≥1 μg/ml to 3 μg/ml for preventing staphylococcal growth 100% (MIC100)) | – | – | –
CCCc1[nH]c(-c2ccc(-c3ccccc3C(F)(F)F)o2)nc1C [Compound 101] | – | 4 (MIC of ≥1 μg/ml to 3 μg/ml for preventing staphylococcal growth 100% (MIC100)) | – | – | –
Cc1[nH]c(-c2ccn(-c3ccccc3C(F)(F)F)c2)nc1-c1ccccc1 [Compound 33] | – | 1 (MIC100 of 20-50 μg/ml or an MIC50 of <10 μg/ml) | – | 3 | –
Cc1[nH]c(-c2cc(C)n(-c3ccc(Cl)cc3)c2C)nc1-c1ccccc1 [Compound 8] | – | 1 (MIC100 of 20-50 μg/ml or an MIC50 of <10 μg/ml) | – | 1 | –
CCCc1[nH]c(-c2ccc(-c3ccccc3Cl)o2)nc1C [Compound 95] | 4 (MIC of 1 μg/ml or less for preventing streptococcal growth 100% (MIC100)) | 4 (MIC of ≥1 μg/ml to 3 μg/ml for preventing staphylococcal growth 100% (MIC100)) | – | – | –
CCCc1[nH]c(-c2ccc(-c3ccccc3OC(F)(F)F)o2)nc1C [Compound 89] | 4 (MIC of 1 μg/ml or less for preventing streptococcal growth 100% (MIC100)) | 4 (MIC of ≥1 μg/ml to 3 μg/ml for preventing staphylococcal growth 100% (MIC100)) | – | – | –
FC(F)(F)c1ccccc1-c1ccc(-c2nc3c([nH]2)CCCC3)o1 [Compound 87] | 4 (MIC of 1 μg/ml or less for preventing streptococcal growth 100% (MIC100)) | 4 (MIC of ≥1 μg/ml to 3 μg/ml for preventing staphylococcal growth 100% (MIC100)) | – | – | –
Cc1[nH]c(-c2ccc(-c3cccc(C(F)(F)F)c3)o2)nc1-c1ccc(F)cc1 [Compound 38] | – | – | 4 (MIC of ≥1 μg/ml to 3 μg/ml for preventing staphylococcal growth 100% (MIC100)) | 2 | 1 (compounds not causing a loss of viability at concentrations between 25 and 50 μM)
FC(F)(F)Oc1ccccc1-c1ccc(-c2nc3c([nH]2)CCCC3)o1 [Compound 88] | 4 (MIC of 1 μg/ml or less for preventing streptococcal growth 100% (MIC100)) | 4 (MIC of ≥1 μg/ml to 3 μg/ml for preventing staphylococcal growth 100% (MIC100)) | – | – | –
CCCCc1nc(-c2ccc(-c3ccccc3C(F)(F)F)o2)[nH]c1C [Compound 90] | – | 4 (MIC of ≥1 μg/ml to 3 μg/ml for preventing staphylococcal growth 100% (MIC100)) | – | – | –
CCCc1nc(-c2ccc(-c3cccc(C(F)(F)F)c3)o2)[nH]c1C [Compound 99] | 4 (MIC of 1 μg/ml or less for preventing streptococcal growth 100% (MIC100)) | 4 (MIC of ≥1 μg/ml to 3 μg/ml for preventing staphylococcal growth 100% (MIC100)) | – | – | –
Cc1[nH]c(-c2ccc(-c3ccc(F)cc3)s2)nc1-c1ccccc1 [Compound 7] | – | – | – | 2 | 1 (compounds not causing a loss of viability at concentrations between 25 and 50 μM)
Cc1[nH]c(-c2ccc(-c3ccc(Cl)c(C(F)(F)F)c3)o2)nc1-c1ccccc1 [Compound 39] | – | – | – | 2 | 1 (compounds not causing a loss of viability at concentrations between 25 and 50 μM)
CCCc1[nH]c(-c2ccc(-c3ccccc3Br)o2)nc1C [Compound 96] | 4 (MIC of 1 μg/ml or less for preventing streptococcal growth 100% (MIC100)) | 4 (MIC of ≥1 μg/ml to 3 μg/ml for preventing staphylococcal growth 100% (MIC100)) | – | – | –

SMILES | Antibacterial activity Streptococcus pneumoniae [1] | Antibacterial activity Staphylococcus aureus (MRSA) [2] | Antibacterial activity Staphylococcus aureus (MSSA) [3] | cytotoxicity cell line K (keratinocytes) [4] | cytotoxicity cell line H (hepatocytes) [5]
Cc1nc(-c2cc(C)n(-c3ccccc3F)c2C)[nH]c1-c1ccccc1 [Compound 119] | – | 1 (MIC100 of 20-50 μg/ml or an MIC50 of <10 μg/ml) | – | – | –
Cc1ccc(-c2ccc(-c3nc(-c4ccccc4)c(C)[nH]3)s2)cc1 [Compound 54] | – | – | – | 1 | 1 (compounds not causing a loss of viability at concentrations between 25 and 50 μM)
Cc1[nH]c(-c2ccc(-c3ccc(Cl)cc3)s2)nc1-c1ccccc1 [Compound 6] | – | – | – | 0 (compounds not causing loss of cell viability at concentrations of 50 μM or higher) | 0 (compounds without signs of cell viability loss at concentrations of 50 μM or higher)
Cc1[nH]c(-c2ccc(-c3ccc(OC(F)(F)F)cc3Cl)o2)nc1-c1ccc(F)cc1 [Compound 51] | – | 1 (MIC100 of 20-50 μg/ml or an MIC50 of <10 μg/ml) | – | 3 | –
Cc1[nH]c(-c2ccc(-c3ccccc3OC(F)(F)F)o2)nc1-c1ccc(F)cc1 [Compound 23, 4-(4-Fluoro-phenyl)-5-methyl-2-[5-(2-trifluoromethoxy-phenyl)-furan-2-yl]-1H-imidazole] | 4 (MIC of 1 μg/ml or less for preventing streptococcal growth 100% (MIC100)) | 4 (MIC of ≥1 μg/ml to 3 μg/ml for preventing staphylococcal growth 100% (MIC100)) | – | 2 | –
CCCc1[nH]c(-c2ccc(-c3cc4ccccc4o3)o2)nc1C [Compound 106] | 4 (MIC of 1 μg/ml or less for preventing streptococcal growth 100% (MIC100)) | 4 (MIC of ≥1 μg/ml to 3 μg/ml for preventing staphylococcal growth 100% (MIC100)) | – | – | –
Cc1[nH]c(-c2ccc(-c3ccccc3OC(F)(F)F)o2)nc1-c1ccc(O)cc1 [Compound 76] | – | 4 (MIC of ≥1 μg/ml to 3 μg/ml for preventing staphylococcal growth 100% (MIC100)) | – | – | –
CCCc1[nH]c(-c2ccc(-c3ccc(N4CCN(C)CC4)cc3)o2)nc1C [Compound 107] | – | 1 (MIC100 of 20-50 μg/ml or an MIC50 of <10 μg/ml) | – | – | –
Cc1[nH]c(-c2csc(-c3cccc(Br)c3)n2)nc1-c1ccccc1 [Compound 14] | – | – | – | 1 | 1 (compounds not causing a loss of viability at concentrations between 25 and 50 μM)
C#Cc1ccc(-c2nc(-c3ccc(-c4ccccc4C(F)(F)F)o3)[nH]c2C)cc1 [Compound 27] | 4 (MIC of 1 μg/ml or less for preventing streptococcal growth 100% (MIC100)) | – | – | 2 | 1 (compounds not causing a loss of viability at concentrations between 25 and 50 μM)
Cc1[nH]c(-c2ccc(-c3cccc(Br)c3)s2)nc1-c1ccccc1 [Compound 13] | – | – | – | 1 | 1 (compounds not causing a loss of viability at concentrations between 25 and 50 μM)
Cc1nc(-c2ccc(-c3ccc(Cl)cc3Cl)o2)[nH]c1-c1ccc(F)cc1 [Compound 16] | – | – | 4 (MIC of ≥1 μg/ml to 3 μg/ml for preventing staphylococcal growth 100% (MIC100)) | 1 | –
Cc1[nH]c(-c2ccc(-c3ccc(OC(F)(F)F)c(Cl)c3)o2)nc1-c1ccc(Cl)cc1 [Compound 50] | – | – | – | 1 | 1 (compounds not causing a loss of viability at concentrations between 25 and 50 μM)
Cc1[nH]c(-c2csc(-c3ccc(F)cc3)n2)nc1-c1ccccc1 [Compound 11] | – | – | – | 2 | 1 (compounds not causing a loss of viability at concentrations between 25 and 50 μM)
Cc1[nH]c(-c2cc(C)n(-c3ccc(F)cc3F)c2C)nc1-c1ccccc1 [Compound 9] | – | 1 (MIC100 of 20-50 μg/ml or an MIC50 of <10 μg/ml) | – | 2 | –
Cc1ccc(-c2nc(-c3nc(-c4ccccc4)c(C)[nH]3)co2)cc1 [Compound 57] | – | – | – | 3 | 1 (compounds not causing a loss of viability at concentrations between 25 and 50 μM)
